# Results: publication PMC4336329 (PLoS ONE, 2015)
# In all, about 310,000 compounds went through this assay and about 2,200 (0.71%) showed an effect of 50% or more. Effects have a minus sign here. This is one part of the list.
# Target: human ether-à-go-go-related gene (hERG) potassium channel (human, UniProt Q12809)
# Test: primary screen, population patch clamp on CHO cells stably expressing hERG
# human ether-à-go-go-related gene (hERG) potassium channel, sequence (Q12809 whole entry, looked up): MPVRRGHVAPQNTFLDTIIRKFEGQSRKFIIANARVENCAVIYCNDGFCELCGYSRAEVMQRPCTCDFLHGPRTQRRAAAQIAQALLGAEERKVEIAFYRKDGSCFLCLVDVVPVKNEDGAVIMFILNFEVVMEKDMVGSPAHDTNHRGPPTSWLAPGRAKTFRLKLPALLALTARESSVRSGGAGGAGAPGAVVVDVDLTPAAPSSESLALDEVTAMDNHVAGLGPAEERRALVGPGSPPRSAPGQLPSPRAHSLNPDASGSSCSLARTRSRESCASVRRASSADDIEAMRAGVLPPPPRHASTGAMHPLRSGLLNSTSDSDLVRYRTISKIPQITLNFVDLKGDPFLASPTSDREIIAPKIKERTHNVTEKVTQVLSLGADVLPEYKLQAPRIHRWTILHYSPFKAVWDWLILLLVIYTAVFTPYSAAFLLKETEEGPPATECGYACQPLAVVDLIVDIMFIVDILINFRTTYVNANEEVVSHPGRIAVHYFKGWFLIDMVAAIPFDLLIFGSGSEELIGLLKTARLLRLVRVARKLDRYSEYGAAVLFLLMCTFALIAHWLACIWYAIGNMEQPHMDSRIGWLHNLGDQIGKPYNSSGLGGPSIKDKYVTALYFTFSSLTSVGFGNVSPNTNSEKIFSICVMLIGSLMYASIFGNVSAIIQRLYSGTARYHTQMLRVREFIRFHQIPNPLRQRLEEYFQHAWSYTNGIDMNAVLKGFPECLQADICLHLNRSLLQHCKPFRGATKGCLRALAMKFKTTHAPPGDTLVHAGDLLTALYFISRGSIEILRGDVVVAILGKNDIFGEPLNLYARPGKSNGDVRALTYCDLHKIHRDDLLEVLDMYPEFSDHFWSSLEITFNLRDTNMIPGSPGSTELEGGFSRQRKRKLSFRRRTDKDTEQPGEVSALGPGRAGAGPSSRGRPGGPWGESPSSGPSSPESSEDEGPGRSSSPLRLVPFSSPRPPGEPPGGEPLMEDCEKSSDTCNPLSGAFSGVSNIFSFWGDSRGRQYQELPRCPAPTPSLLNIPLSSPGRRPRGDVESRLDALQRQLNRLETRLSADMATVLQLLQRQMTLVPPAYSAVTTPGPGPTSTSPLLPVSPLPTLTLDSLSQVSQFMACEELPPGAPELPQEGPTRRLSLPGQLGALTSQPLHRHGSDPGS
row,SMILES,"hERG current change (%, negative = inhibition) at 1uM [%]"
1,S=C(Nc1ccccc1)N1N=CCC1c1ccccc1 (centres unmarked),-17.1
2,COc1ccc(C(=O)N2CCn3c2nc2ccccc23)cc1,6.48
3,CCNc1nc(NC(C)C)nc(Oc2ccc(OCCOc3ccccc3)nn2)n1,9.17
4,O=C(CCCC1=NS(=O)(=O)c2ccccc2N1)N1CCN(c2ccc(Cl)cc2)CC1,-15.7
5,O=C(O)/C=C/C(=O)NNC(=O)c1ccc(Br)cc1,14.9
6,NNC(=O)c1cc(O)c(O)c(O)c1,16.9
7,CC(C)NC(=O)COC(=O)c1cc(F)c(F)cc1Cl,16.3
8,CCSc1nnc(-c2ccncc2)o1,24.6
9,COc1ccc(C(=O)O)cc1S(=O)(=O)N(C)CCc1ccccn1,16.3
10,O=C(O)C1CCCCN1C(=O)c1ccc(S(=O)(=O)N2CCCCCC2)cc1 (centres unmarked),13.6
11,O=c1oc(-c2ccccc2)nc2sc3c(c12)CCC3,7.52
12,CCOC(=O)Cc1csc(NC(=O)CSc2nnnn2-c2ccc(F)cc2)n1,-4.09
13,C=CCNC(=O)C1CCN(S(=O)(=O)c2ccccc2)CC1,5.99
14,O=C(Nc1c2c(nn1-c1ccc(Cl)cc1)CS(=O)(=O)C2)C1CC1,1.67
15,O=S(=O)(Nc1ccc(N2CCOCC2)cc1)c1ccc(F)cc1,9.97
16,N/C(=N\OC(=O)Nc1ccccc1)c1ncc(C(F)(F)F)cc1Cl,5.81
17,COc1cccc2c1C(=O)C[C@]1(CCCC[C@@H]1C)O2,10.6
18,CCN1CCN(c2ccc(S(=O)(=O)N3CCOCC3)cc2NC(=O)/C=C/c2ccc(OC)cc2OC)CC1,9.63
19,CCCCn1c(N)c(N(CCOC)C(=O)CSc2n[nH]c(-c3ccc(C)cc3)n2)c(=O)[nH]c1=O,5.19
20,O=C(CCn1c(=O)sc2ccccc21)Nc1cccnc1,7.23
21,Cc1nnc(NC(=O)c2ccc3ccccc3n2)s1,3.67
22,Fc1ccc(C(CCNCc2ccccn2)c2ccc(Cl)cc2)cc1 (centres unmarked),-41.6
23,Cc1nn(C)c(Oc2cccc(Cl)c2)c1C(=O)Nc1ccc(F)cc1F,2.77

row,SMILES,"hERG current change (%, negative = inhibition) at 1uM [%]"
1,COc1ccccc1NS(=O)(=O)c1cccc(N=C2N=C(N)c3ccccc32)c1,14.6
2,COCCN(Cc1cn(C)nc1-c1ccccc1F)C(C)C,16.1
3,O=C(Nc1ccc(O)c(-c2nc3ccccc3o2)c1)C1(c2ccc([N+](=O)[O-])cc2)CCCC1,5.46
4,COc1cccc(OCCCCCCN2CCOCC2)c1,1.95
5,O=C(N/N=C/c1ccccc1[N+](=O)[O-])c1ccc2c(c1)OCCO2,3.5
6,COc1cc(NS(=O)(=O)c2c(C)[nH]c(C)c2C(=O)N2CCCCC2)cc(OC)c1OC,2.75
7,Cl.Fc1cccc(Cl)c1CNCc1ccccc1Cl,-9.98
8,Cc1ccc(NS(=O)(=O)c2ccc3c(c2)oc(=O)n3C)cc1C,11.2
9,CC(c1nc2ccccc2c(=O)[nH]1)N(C)c1ccc2ccccc2c1 (centres unmarked),5.34
10,Cc1ccccc1NC(=O)CN1CCC(n2nnc3ccccc32)CC1,-12.1
11,O=S(=O)(Nc1ccc(N=Nc2ccccc2)cc1)c1ccccc1,3.42
12,CC(C)(C)c1ccc(NC(=O)COC(=O)c2ccc([N+](=O)[O-])s2)cc1,5.49
13,CC(Sc1nnc(-c2cccnc2)n1-c1ccccc1F)C(=O)N1CCCc2ccccc21 (centres unmarked),-0.48
14,CCOc1cc(NC(=S)NC)c(OCC)cc1NC(=O)c1ccco1,7.87
15,COC(=O)/C=C1\SC(=NC(=O)c2cccc(Cl)c2)NC1=O,9.73
16,CCn1c(-c2ccc3[nH]c(C)c(C)c3c2)n[nH]c1=S,20.9
17,CCN1C(=O)N[C@@H](c2cccs2)C(C(=O)OC)=C1C,14.6
18,CC(Oc1ccccc1)C(=O)N1CCN(c2ncccn2)CC1 (centres unmarked),3.15
19,COc1ccc(C2C(C#N)=C3NC(=O)c4c(sc5c4CCCCC5)N3C3=C2C(=O)CC(C)(C)C3)cc1 (centres unmarked),0.0408
20,O=C(C1CCC1)N1CCN(S(=O)(=O)c2cccc(F)c2)CC1,5.89
21,Cn1nnnc1SCC(=O)Nc1ncc(Cl)cc1Cl,5.66
22,OCC(O)CSc1nc(-c2ccccc2)nc2c1CCC2 (centres unmarked),0.848
23,CCCN=C(Nc1ccc(Cl)cc1)c1cccnc1,-1.17

row,SMILES,"hERG current change (%, negative = inhibition) at 1uM [%]"
1,O=C(NC1CCCCC1)C(c1cccs1)N(CCCN1CCOCC1)C(=O)c1ccc(-c2ccccc2)[nH]1 (centres unmarked),3.7
2,CN(CC(=O)N1CCN(c2ccccc2)CC1)S(=O)(=O)c1cccs1,6.69
3,c1ccc(NC2=NCCS2)cc1,12.7
4,COc1ccc(C(CNC(=O)CCNC(=O)c2ccc(Br)cc2)N2CCOCC2)cc1 (centres unmarked),-2.51
5,c1cc2cn[nH]c2cc1NC1CCCCCC1,-5.7
6,COc1ccc(/C=N/NC(=O)c2cccc(NC(C)=O)c2)c(C(=O)O)c1OC,14.4
7,COc1nc(N2CCCC2)nc(-n2nnc(C(C)=O)c2C)n1,-3.53
8,Nc1ccc(Sc2nnnn2-c2ccccc2)c(Cl)c1,7.15
9,CCn1cc(/C=N\NC(=O)c2csc3ccccc23)c(C)n1,13.3
10,CCN1CCN(Cc2ccc(NC(=O)c3cc(NC(=O)c4ccno4)cc(OC)c3)cc2C(F)(F)F)CC1,13.8
11,COc1cc(CN(C)C)cc(C=O)c1O,5.92
12,CCOc1ncccc1C(=O)N1CCN(Cc2ccc3c(c2)OCO3)CC1,-1.13
13,O=C(c1ccc(-n2ccnc2)cc1)N1CCCC(CO)(Cc2cccc(Cl)c2)C1 (centres unmarked),-13.3
14,COC(=O)[C@H](CCSC)NS(=O)(=O)c1ccccc1Br,10.4
15,COc1ccc2cc3c(nc2c1)OCC3,12.3
16,CCOc1ccc(CCNC(=O)c2cc(C)nn2-c2ccccc2)cc1,2.12
17,Cc1ccc(C)c(N(CC(=O)NCC2CCCO2)C(=O)CCC(=O)Nc2nccs2)c1 (centres unmarked),9.69
18,COC(=O)Cn1c(=O)sc2ccccc21,6.17
19,COc1ccccc1NS(=O)(=O)c1ccc2oc(SCc3ccc(F)cc3)nc2c1,5.14
20,CC(Oc1ccccc1)C(=O)Nc1ccc(S(=O)(=O)Nc2nccs2)cc1 (centres unmarked),15.3
21,CC(=O)c1cc(C(=O)c2ccccc2)sc1Nc1ccccc1,8.69
22,CCn1c(=S)[nH]c2ccccc21,7.37
23,CS(=O)(=O)N(CC(=O)Nc1ccccc1C(=O)NCc1ccccc1)c1ccc2c(c1)OCCO2,-11.8

row,SMILES,"hERG current change (%, negative = inhibition) at 1uM [%]"
1,Cc1ccc(C(=O)N/C(=C/c2ccc(Cl)cc2)C(=O)N2CCOCC2)cc1,-9.41
2,O=C(OCC(=O)c1ccc(S(=O)(=O)N2CCCC2)cc1)C1=COCCO1,14.4
3,CCc1cc(OCCOCCN(C)C)ccc1Cl.O=C(O)C(=O)O,3.67
4,C=CCN1C(=O)CSC1=Nc1ccc(O)cc1,11.5
5,COc1ccc(C(NC(=O)CN2C(=O)NC3(CCc4ccccc43)C2=O)c2ccccc2)cc1 (centres unmarked),8.65
6,C=CCn1c(Br)nc2c1c(=O)n(C)c(=O)n2C,-11.3
7,CC(C)CC12CN3CCN(CC(C3)C1O)C2 (centres unmarked),-3.3
8,Cc1c(C)c(C)c(S(=O)(=O)N2CCSCC2)c(C)c1C,10.6
9,Cc1cn2c(=O)c(C(=O)N3CCN(c4ccccc4Cl)CC3)cnc2s1,-27.1
10,CCOc1ncccc1C(=O)OCC(=O)c1ccc(OC)c(OC)c1,15
11,O=C1/C(=C/c2ccc([N+](=O)[O-])cc2)C=C(c2ccccc2)N1c1ccc(O)cc1,7.51
12,COc1ccc(-c2nc(CS(=O)CC(=O)NCc3ccco3)c(C)o2)cc1OC (centres unmarked),-3.14
13,CC(C)C(=O)NC(=S)Nc1ccc(S(=O)(=O)NC2CCCCC2)cc1,0.506
14,CCn1c(N)c(C(=O)NC2CCCCC2)sc1=S,0.37
15,CN(CC(=O)Nc1ccc(Br)cc1)Cc1ccccc1,17.2
16,CC1CCC(NC(=O)c2ccc3c(c2)S(=O)(=O)c2ccccc2C3=O)CC1 (centres unmarked),1.11
17,CN(C)c1oc(-c2ccccc2[N+](=O)[O-])nc1C#N,5.09
18,O=c1c2ccccc2ncn1-c1ccc(Br)cc1[N+](=O)[O-],12.1
19,COc1ccc(NC(=O)COC(=O)c2ccc(N3CCCC3=O)cc2)cc1,15.4
20,Cc1ccc(NC(=O)CC(C(=O)O)c2ccccc2)cc1 (centres unmarked),12.9
21,Cc1cccc(NC(=O)c2ccc(C(=O)c3ccccc3)cc2)n1,-0.878
22,Cc1cc(C)c(C(N)=O)c(NCCc2ccccc2)n1,13.1
23,CC(C)c1ccc(C2/C(=C(\O)c3ccc4c(c3)OCCO4)C(=O)C(=O)N2CCN2CCOCC2)cc1 (centres unmarked),11.5
